# Experimental data: ChEMBL document CHEMBL1157539, “Thousands of chemical starting points for antimalarial lead identification” (Nature, 2010)
# Where “and” joins values, the source holds several entries; their conditions need not be identical. Equal values may be shown once. Whole data set: some 13,000 compounds, median “IFI” near 4, cut for the highest 2% near 17. This is one part of the list.
# Test: GSK_TCMDC: Inhibition Frequency Index (IFI). The number of non-kinase HTS assays where a compound showed > 50 % inhibition, expressed as a percentage of the number of such assays in which the compound was tested (-0 is zero)
# Type: functional
row,SMILES,IFI
1,Oc1ccc(Cl)cc1CN1CCC2(CCCN(CC3CCC3)C2)C1 (stereo unspecified),4.65%
2,CN1CCC(C(=O)N(Cc2ccc(-c3ccc(CNCCc4ccc(S(C)(=O)=O)cc4)cn3)cc2)Cc2cccc(F)c2)CC1,2.78%
3,COC(=O)/C=C/c1ccc(CCC(C)NCC(O)c2cccc(Cl)c2)cc1 (stereo unspecified),2.9%
4,O=c1cc(NCCCNCc2sc(Br)c(Br)c2Br)[nH]c2ccccc12,5.11%
5,CN(Cc1cnc2nc(N)nc(N)c2n1)c1ccc(C(=O)N[C@@H](CCC(=O)O)C(=O)O)cc1,1.46% and -0% and 0.74%
6,COc1ccc(Cc2c(Cl)nc3nc(N)nc(N)c3c2C)c(OC)c1OC,0.8%
7,COc1cc2nc(N3CCC(CNC(=O)c4ccc(-c5ccc(Cl)cc5)cc4)CC3)nc(N)c2cc1OC,9.26%
8,Cc1[nH]c(C)c(-c2ccc(Oc3ccc(Cl)cc3)cc2)c(=O)c1Br,0.78%
9,CN(C)CCNC(=O)[C@H](Cc1ccccc1)NC(=O)c1ccc(O)c(-c2ccc(Cl)c(Cl)c2)c1,3.62%
10,OCC1CCN(Cc2ccc(-c3cccc(-c4nc5cc(F)ccc5[nH]4)c3)cc2)CC1,0%
11,Cc1ccc(O)cc1Nc1ccnc2cc(-c3ccccn3)ccc12,3.57%
12,O=C(Nc1ccc(OC2CCN(Cc3ccco3)CC2)c(Cl)c1)c1ccc2ncccc2c1,6.45%
13,Cc1[nH]n(-c2cccc(C(F)(F)F)c2)c(=O)c1-c1ccc(Cl)cc1,4.41%
14,Cc1[nH]c(C)c(-c2ccc(OCc3ccc(F)cc3)nc2)c(=O)c1Br,3.57%
15,Cc1noc(C)c1CN1CCCN(c2ccc3c(c2)CCN(Cc2ccc(-c4ncc[nH]4)cc2)CC3)CC1,4.2%
16,CCNc1cc(C(=O)N[C@@H](Cc2ccccc2)[C@H](O)CNC2CCC(C)(C)CC2)cc(N2CCCCS2(=O)=O)c1,3.65%
17,CN(C)CCCNCCS(=O)(=O)c1cccc(Nc2ccc(-c3cccc(N(C)C)c3)cn2)c1,5.45%
18,CN(Cc1ccccc1)C1CCCN(c2cc(NC(=O)c3ccc(F)cc3)ccn2)C1 (stereo unspecified),5.56%
19,Cc1cc(N[C@@H](Cc2ccccc2)C(=O)Nc2ccccc2)nc(NCCc2cccnc2)n1,2.44%
20,COc1cccc(NC(=O)Cn2c(C)c(C#N)c3ccccc32)c1,-0%
21,CCNc1cc(C)nc(Nc2ccc(NC(=O)c3ccccc3Br)cc2)n1,11.1%
22,FC(F)(F)c1cccc(C=NNc2nc3ccccc3[nH]2)c1,2.9%
23,COc1cccc(CN2CCCN(Cc3cccc(NC(=O)c4cc5ccccc5s4)c3)CC2)c1,6.92%

row,SMILES,IFI
1,c1ccc(-n2ncc(CNCc3ccc(-c4cccc(-c5nc6ccccc6[nH]5)c4)cc3)n2)cc1,7.62%
2,N=C(N)c1ccc(NCc2cccc(C(=O)O)c2)cc1,0%
3,CC(=O)N(C)C1CCN(Cc2cccc(-c3ccc(-c4nc5cc(F)ccc5[nH]4)cc3)c2)C1 (stereo unspecified),1.43%
4,Cc1cc(N2CCCN(CC3CCCCC3)CC2)nc(Nc2ccc(Br)cc2)n1,5.56%
5,CNC(=O)c1ccccc1Nc1nc(Nc2ccc(C(=O)O)cc2)ncc1Cl,-0%
6,Cc1sc(NC(=O)c2ccc([N+](=O)[O-])cc2Cl)c(C(N)=O)c1C,0.75%
7,CC(CN1CCN(C)CC1)C(=O)Nc1cccc(-c2ccc(-c3nc4ccccc4[nH]3)cc2)c1 (stereo unspecified),5.5%
8,CCCN(CCCCCCN(CCC)CCc1ccc(O)c(O)c1)CCc1ccc(O)cc1,5.63%
9,CCN(CCCN1CCCCC1)c1cc(C)nc(Nc2cc(F)cc(F)c2)n1,1.28%
10,CC(=O)Nc1ncc(C(=O)Nc2cccc(-c3ccc(-c4nc5cc(C(F)(F)F)ccc5[nH]4)s3)c2)s1,4.63%
11,COc1ccc2nccc([C@@H](O)CN3CCC(NC(=O)C(c4ccccc4C)N4CCC(Cc5ccccc5)CC4)CC3)c2c1 (stereo partly specified),1.48%
12,c1ccc2c(Nc3ccc(Oc4ccc(Nc5c6ccccc6nc6ccccc56)cc4)cc3)c3ccccc3nc2c1,3.68%
13,O=C(Cc1cccc(Cl)c1)Nc1cccc(-c2c[nH]c3nc(Nc4ccccc4)ncc23)c1,0.76%
14,Cc1ccc(F)c(C(=O)Nc2cccc(-c3nn4ccccc4c3-c3ccnc(Nc4cccc(F)c4)n3)c2)c1F,2.13%
15,Fc1ccc2c(NN=Cc3ccc(Cl)cc3)ccnc2c1,0.74%
16,COc1ccc(NC(=O)NC2CCN(c3ccnc4cc(Cl)ccc34)C2)cc1 (stereo unspecified),-0%
17,Fc1ccc(Nc2ccnc3cc(I)ccc23)c(Cl)c1,5.04%
18,CC1(C)NC(N)=NC(=N)N1OCCOc1ccc2ccccc2c1,4.29%
19,COc1ccc2ncc(Cl)c([C@@H](O)CN3CCC(NCc4cc5c(cn4)OCCO5)CC3)c2c1,1.77%
20,COc1c(C2CCN(CCN3CCC(NC(=O)c4ccc(-c5ccc(C(F)(F)F)cc5)cc4)CC3)CC2)ccc2c1CCCC2,1.85%
21,CN1CCN(Cc2ccc(-c3ccc4c(Nc5ccc(Cl)cc5F)ccnc4c3)o2)CC1,8.57%
22,CCCOc1ccc(-c2nonc2NC(=O)c2cccc(OC)c2)cc1OCCC,-0%
23,C[C@H](Cc1ccc(OCCCCCCOc2ccc(C[C@@H](C)NC[C@H](O)c3cccc(Cl)c3)cc2)cc1)NC[C@H](O)c1cccc(Cl)c1,16.9%

row,SMILES,IFI
1,Nc1c(Cl)cc(C(O)CNCCCCCOCCc2ccc3ccccc3n2)cc1Cl (stereo unspecified),4.62%
2,Cc1ccc2cc(C3NC(=O)c4ccccc4N3)c(Cl)nc2c1 (stereo unspecified),0%
3,CC1(C)N=C(N)N=C(N)C1c1ccc(Cl)c(Cl)c1 (stereo unspecified),1.43%
4,C=CCC(C(=O)Nc1ccnc2ccc(OC)cc12)C1CCN(CCCCCCC)CC1 (stereo unspecified),1.52%
5,Cn1cccc1CCNCc1ccc(-c2cccc(-c3nc4cc(F)ccc4[nH]3)c2)cc1,0.97%
6,Cc1cccc2nc(-c3ccc(-c4ccc(CN5CCCC(N)C5)cc4)s3)[nH]c12 (stereo unspecified),5.56%
7,O=C1NC(=O)C(c2cccc(NC(=O)c3ccncc3)c2)=C1c1ccccc1,2.99%
8,Cc1cc(O)nc(NC(=N)NOCCCc2ccccc2)n1,0%
9,Cc1ccc(NC(=O)c2cccc(CN3CCCN(CC4CCCCC4)CC3)c2)cc1F,5.67%
10,CN1CCN(c2cccc(-c3nnc(-c4cccc(OCC(=O)NCc5ccc(C(F)(F)F)cc5)c4)o3)c2)CC1,2.17%
11,Cc1cc(Nc2ccc3ccccc3c2)n2ncnc2n1,2.84%
12,CCOc1ccc2c(=NN=Cc3cc(OC)c(OC)cc3OC)cc(C)[nH]c2c1,2.19%
13,COc1ccc(-c2cccc(CNC3CCN(C)CC3)c2)cc1S(=O)(=O)NCc1ccccc1,2.73%
14,CCN(CCC1(c2ccc(Cl)c(Cl)c2)CN(C(=O)c2cc(OC)c(OC)c(OC)c2)CCO1)C1CC2c3ccccc3CC21 (stereo unspecified),4.08%
15,OC(CNC1CCCCC1)Cn1c2ccc(Br)cc2c2cc(Br)ccc21 (stereo unspecified),6.29%
16,O=C(Cc1c[nH]cn1)Nc1ccc(-c2ccc(-c3nc4cc(F)ccc4[nH]3)cc2)cc1,12.7%
17,O=C1OC2(CN1CC1CCN(Cc3ccc(-n4ccnc4)cc3)C1)c1ccccc1-c1ccccc12 (stereo unspecified),7.09%
18,CC(c1cccc(S(=O)(=O)NCc2ccc(Cl)cc2Cl)c1)N1CCC(N2CCCCC2)CC1 (stereo unspecified),10.5%
19,O=C(CCC1CCCCC1=O)c1ccccc1 (stereo unspecified),0.72%
20,Cc1ccc(Nc2nc(C)cc(Nc3cccc(NS(C)(=O)=O)c3)n2)cc1,6.15%
21,Cc1[nH]c(C)c(-c2ccc(OCc3ccc(OC(F)(F)F)cc3)nc2)c(=O)c1Cl,3.74%
22,N=C(N)c1ccc(OCc2cccc(COc3ccc(C(=N)N)cc3I)c2)c(I)c1,12.1%
23,CC(=O)Nc1ccc(S(=O)(=O)N2CCN(c3nc(NC4CCCC4)c4ccccc4n3)CC2)cc1,2.04%

row,SMILES,IFI
1,O=S(=O)(NCCN1CCCC1)c1ccc(-c2cccc(CNC3Cc4ccccc4C3)c2)cc1,8.93%
2,CC(=O)Nc1ncc(C(=O)Nc2cccc(-c3cccc(-c4nc5cc(F)ccc5[nH]4)c3)c2)s1,3.64%
3,Cc1cc(N[C@@H](Cc2ccccc2)C(=O)NC2CCCC2)nc(NCCCOC(C)C)n1,6.82%
4,CCCCn1c(=N)c(C(=O)NCc2cccnc2)cc2c(=O)n3cccc(C)c3nc21,3.57%
5,O=C(Nc1ccccc1)Nc1ccc(-n2ccc(C(F)(F)F)n2)cc1,3.31%
6,Clc1cc(Nc2ncnc3cc(C#C[C@H]4CCCN4)sc23)cc2nc(Cc3ccccc3)[nH]c12,10.1%
7,COc1cccc2cc(C(=O)N[C@@H](CC(C)C)C(=O)N[C@H](/C=N/NC(=O)N3CCN(C)CC3)CCc3ccccc3)oc12,4.59%
8,O=C1c2ccccc2CN1CCCN1CCC(Oc2ccc(F)cc2)CC1,3.01%
9,COc1ccc(N2CCN(CCCCNC(=O)c3ccc(NC(=O)c4cc(Cl)cc(Cl)c4)cc3)CC2)c(OC)c1,5.31%
10,CCCCCCCN1CCC(NC(=O)Nc2ccnc3ccc(OC)cc23)C(CO)C1 (stereo unspecified),6.3%
11,Cc1cccc2nc(-c3ccc(-c4cccc(NC(=O)Nc5ccc6c(c5)OCO6)c4)cc3)[nH]c12,6.06%
12,O=C(Nc1ccc2c(c1)CCN2C1CCN(Cc2cccc(F)c2F)C1)c1ccco1 (stereo unspecified),-0%
13,O=C(Nc1ccc(Cl)c(Cl)c1)N1CCc2ccc(OCCCN3CCCCC3)cc2CC1,9.09%
14,COc1ccc(CNC2CCCC2)cc1-c1ccc(S(=O)(=O)NCCN2CCCC2)s1,5.61%
15,O=C(Nc1ccc(-c2ccccc2)cc1)Nc1ccc2c(c1)CCNCC2,9.84%
16,CC(C)CNCc1ccc(-c2ccc(CN(C(=O)NCCc3ccccc3)C3CCN(Cc4ccccc4)CC3)cc2)cc1,6.52%
17,Cc1cccc2nc(-c3ccc(-c4ccc(CNCc5cccc(N)c5)cc4)s3)[nH]c12,10.5%
18,O=C(Nc1cc(C(F)(F)F)ccc1Cl)c1ccc(Cn2cc(Br)cn2)cc1,7.55%
19,CCOc1cc(Cc2cnc(N)nc2N)cc(Br)c1OC,0.74%
20,CCCc1ccc(C(=O)N2C(c3nccs3)C(C(N)=O)CC2(CC(C)C)C(=O)O)cc1 (stereo unspecified),-0%
21,COc1ccc(S(=O)(=O)Nc2cc(Br)cc3c2OCCC3)cc1N1CCN(C(=O)C(Cl)(Cl)Cl)CC1,0%
22,O=C(/C=C/c1ccc(Cl)c(Cl)c1)NCCCCCN1CCC(NC(=O)c2cc(Cl)ccc2F)CC1,6.9%
